The record followed here is PubChem BioAssay AID1745853 (National Center for Advancing Translational Sciences (NCATS), 2022).

Common to all, as to test: Primary Screen for Target Class Profiling of Small Molecule Inhibitors of Methyltransferases
Assay [1] concerns the target Glycine N-methyltransferase (Homo sapiens) (UniProt Q14749). The conditions noted are these: purified enzyme, MTase-Glo SAH luminescence; measured here: GNMT inhibition; at 40 µM; stronger effect = lower value. In a few lines:
(§1)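 Each enzyme was assayed with SAM and its substrate. SAH formation detected by MTase-Glo luminescence; single-point 40 uM screen[…].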

The target in assay [2] is Guanidinoacetate N-methyltransferase (Homo sapiens) (UniProt Q14353). The conditions noted are these: purified enzyme, MTase-Glo SAH luminescence; measured here: GAMT inhibition; at 40 µM; stronger effect = lower value. An outline of the steps: as §1
Assay [3] deals with Histamine N-methyltransferase (Homo sapiens) (UniProt P50135). The conditions noted are these: purified enzyme, MTase-Glo SAH luminescence; measured here: HNMT inhibition; at 40 µM; stronger effect = lower value. An outline of the steps:
as §1

The target of assay [4] is Nicotinamide N-methyltransferase (Homo sapiens) (UniProt P40261). The conditions noted are these: purified enzyme, MTase-Glo SAH luminescence; measured here: NNMT inhibition; at 40 µM; stronger effect = lower value. In a few lines: as §1
Assay [5] deals with Phenylethanolamine N-methyltransferase (Homo sapiens) (UniProt P11086). The conditions noted are these: purified enzyme, MTase-Glo SAH luminescence; measured here: PNMT inhibition; at 40 µM; stronger effect = lower value. An outline of the steps:
as §1

The other results are listed elsewhere or left out. Shown are side measurements of this screen, not its main read-out; they come without a call.
On the % scale 0 is the no-effect control and ±100 the full control effect.

As to `Cc1ncoc1C(=O)N1C[C@@H](COCC2CC2)[C@H](c2ccccn2)C1`, the activity change, negative = inhibition is -1.47% in assay [1]; -3.84% in assay [2]; 1.21% in assay [3]; -0.492% in assay [4]; -1.06% in assay [5].

Regarding `CCOc1ccc(CCN2C(=O)c3c(C(=O)OC)ncn3CC2(C)C(=O)NC2CCCCCC2)cc1` (stereo not given), the activity change, negative = inhibition was found to be 4.23% in assay [1]; 1.38% in assay [2]; 3.15% in assay [3]; 12.9% in assay [4]; 6.58% in assay [5].

With `CCOC(=O)c1cn(C2CN(S(=O)(=O)c3ccc(C)c(C)c3)C2)nn1`, the activity change, negative = inhibition in assay [1] was 0.74%; in assay [2] it was -0.08%; in assay [3], 1.86%; in assay [4], -2.41%; in assay [5], 2.93%.

Take `Cn1ncc2c(C(=O)NC3CCCCCC3)cc(C(C)(C)C)nc21`: the activity change, negative = inhibition was -6.96% in assay [1]; -7.4% in assay [2]; -5.65% in assay [3]; -13.7% in assay [4]; -7.77% in assay [5].

As for `CC(C)C(NC(=O)c1ccc(O)cc1)C(=O)N1CCCC1C(=O)Nc1c(O)cccc1C(=O)O` (stereo not given), the activity change, negative = inhibition in assay [1] was 0%; in assay [2], 5.99%; in assay [3], 11.1%; in assay [4], -5%; in assay [5], 2.36%.

Regarding `CNC(=O)[C@@H](C1CC1)N1CCC[C@H]1C(=O)NCc1cccnc1`, the activity change, negative = inhibition in assay [1] is 0.495%; in assay [2], -1.59%; in assay [3], 0.189%; in assay [4], -1.05%; in assay [5], 1.31%.

On to `COc1ccccc1CNc1nc2c(S(=O)(=O)c3ccc(C)cc3)nnn2c2ccccc12`, for which the activity change, negative = inhibition in assay [1] is 1.15%; in assay [2], 0%; in assay [3], 4.97%; in assay [4], -4.33%; in assay [5], 0.421%.

With `Cc1cc(F)ccc1NC(=O)CCC1CCCN(C(=O)CC2=CCCCC2)C1` (stereo not given), the activity change, negative = inhibition was -6.06% in assay [1]; -6.26% in assay [2]; -1.68% in assay [3]; -11.8% in assay [4]; -16.8% in assay [5].

Take `Cc1cccc(C(C(=O)N2CCN(Cc3noc(C)n3)CC2)N(C)C)c1` (stereo not given): the activity change, negative = inhibition was -1.24% in assay [1]; -1.12% in assay [2]; 1.27% in assay [3]; 2.46% in assay [4]; 0.535% in assay [5].

On to `CCCC1=Nc2cc(C(=O)NCCCN3CCCCC3CC)ccc2Sc2ccc(C)cc21` (stereo not given), for which the activity change, negative = inhibition in assay [1] is -6.83%; in assay [2], 0.33%; in assay [3], -66.4%; in assay [4], -27.2%; in assay [5], -4.09%.

As to `CC1CCC2(C=O)C(CO)=CCCC2C1(C)CC(=O)O` (stereo not given), the activity change, negative = inhibition is -10.4% in assay [1]; -4.79% in assay [2]; -3.79% in assay [3]; -16.6% in assay [4]; -0.237% in assay [5].

For `COc1ccc(-c2noc(-c3nc(-c4ccc(N(C)C)cc4)no3)n2)cc1OC`, the activity change, negative = inhibition was -2.06% in assay [1]; -0.91% in assay [2]; -2.96% in assay [3]; 1.89% in assay [4]; 0.059% in assay [5].

`O=C(Cc1ccccc1)NCc1ccnc2[nH]ccc12`: the activity change, negative = inhibition in assay [1] was -5.36%; in assay [2] it was -4.36%; in assay [3], -2.83%; in assay [4] it was -16.3%; in assay [5], 4.58%.

In the case of `O=C(O)c1cccc(S(=O)(=O)N2CCc3ccccc3C2)c1`, the activity change, negative = inhibition is 1.74% in assay [1]; -5.49% in assay [2]; 1.36% in assay [3]; -14.6% in assay [4]; -4.11% in assay [5].

As for `Cc1ccc(Cn2c(=O)c3ccccc3n3c(CCC(=O)NC4CCCCC4)nnc23)cc1`, the activity change, negative = inhibition in assay [1] was -5.63%; in assay [2] it was 4.02%; in assay [3] it was 1.53%; in assay [4], 7.15%; in assay [5], -3.36%.

For `COc1ccc(CNC(=O)CCc2nnc3n(CCC(C)C)c(=O)c4ccccc4n23)cc1`, the activity change, negative = inhibition in assay [1] was -8.3%; in assay [2], 0.794%; in assay [3], 7.8%; in assay [4], -8.57%; in assay [5], 1.13%.

As to `O=C(CN1CCCc2nc(-c3ccncc3)ncc2C1=O)NCc1cc(F)ccc1F`, the activity change, negative = inhibition in assay [1] was -8.57%; in assay [2], -11.9%; in assay [3], -5.36%; in assay [4] it was -12.5%; in assay [5], -6.12%.

Regarding `COc1cccc(CN2C(=O)c3cc4ccccc4n3CC2(C)C(=O)NCc2ccccc2)c1` (stereo not given), the activity change, negative = inhibition in assay [1] came out at 2.68%; in assay [2] it was 1.28%; in assay [3] it was 8.82%; in assay [4] it was 1.39%; in assay [5], 1.78%.

Consider `CN(C)CC1(O)CCN(C(=O)Cn2cc(C(=O)C3CC3)c3ccccc32)C1` (stereo not given), for which the activity change, negative = inhibition in assay [1] is -4.7%; in assay [2] it was -3.79%; in assay [3] it was -31.9%; in assay [4], -9.62%; in assay [5], -19.5%.

Take `Cc1ccccc1NC(=O)N1CCn2cccc2C1C` (stereo not given): the activity change, negative = inhibition was 3.35% in assay [1]; 0% in assay [2]; 5.25% in assay [3]; -6.13% in assay [4]; 3.21% in assay [5].

For the molecule `OCC(O)c1cc2n(n1)CCN(Cc1ccccc1Cn1cccn1)C2` (stereo not given), the activity change, negative = inhibition in assay [1] was -3.79%; in assay [2] it was -0.146%; in assay [3], -1.49%; in assay [4], -4.67%; in assay [5], 7.67%.

Turning to `COc1ccc(NC(=O)C2CCN(C(=O)c3ncn4c3COC(c3ccccc3)C4)CC2)cc1Cl` (stereo not given), the activity change, negative = inhibition in assay [1] is -6.05%; in assay [2], -8.27%; in assay [3], -2.49%; in assay [4], -15.8%; in assay [5] it was -11.1%.

For the molecule `COCCCN1C(=O)CSc2c(c3ccccc3n2C)C1C(=O)NCc1ccc(F)cc1` (stereo not given), the activity change, negative = inhibition in assay [1] was -8.13%; in assay [2] it was -1.07%; in assay [3] it was -0.728%; in assay [4] it was -1.94%; in assay [5] it was -2.52%.

As for `Cc1ccc(Cl)cc1NC(=O)Cn1nc2n(CCc3ccccc3)c(=O)c3ccccc3n2c1=O`, the activity change, negative = inhibition is 6.08% in assay [1]; 0% in assay [2]; 5.36% in assay [3]; 4.56% in assay [4]; 3.68% in assay [5].

Take `COc1ccc(-c2cc3nc4c(c(=O)n3[nH]2)CN(C(=O)CN(C)S(=O)(=O)c2cnc[nH]2)CC4)cc1`: the activity change, negative = inhibition in assay [1] was -41.7%; in assay [2], -39.3%; in assay [3], -34.9%; in assay [4], -42.4%; in assay [5], -63.8%.

For `O=C(O)[C@H]1CCCC[C@H]1C(=O)N1CCc2ccccc2[C@H]1CN1C(=O)c2ccccc2C1=O`, the activity change, negative = inhibition in assay [1] is -2.21%; in assay [2] it was 4.87%; in assay [3] it was 10.8%; in assay [4], -11.2%; in assay [5], 3.23%.

As to `NS(=O)(=O)c1ccc(F)c(C(=O)NCCSc2ccccn2)c1`, the activity change, negative = inhibition in assay [1] was -4.41%; in assay [2] it was -2.57%; in assay [3], -0.422%; in assay [4], -4.52%; in assay [5] it was -4.98%.

Regarding `CC(C)NC(=O)c1ccc2c(=O)n(C(C)C)c3nn(CC(=O)Nc4ccccc4F)c(=O)n3c2c1`, the activity change, negative = inhibition in assay [1] worked out at 5.52%; in assay [2] it was 1.38%; in assay [3] it was 0.376%; in assay [4], 0.657%; in assay [5], 5.92%.

Take `Cc1cccc(Oc2cnc(=O)[nH]c2)c1`: the activity change, negative = inhibition is -1.8% in assay [1]; -3.6% in assay [2]; 5.19% in assay [3]; -14.8% in assay [4]; -8.64% in assay [5].

In the case of `CCC(C)NC(=O)c1ccc2c(=O)n(CC(C)C)c3nn(Cc4ccccc4C)c(=O)n3c2c1` (stereo not given), the activity change, negative = inhibition is -5.92% in assay [1]; -2.73% in assay [2]; -4.85% in assay [3]; -10.2% in assay [4]; -5.29% in assay [5].

As to `COCCCN1C(=O)c2ccccc2CC1(C)C(=O)NC1CCCCC1` (stereo not given), the activity change, negative = inhibition was -3.91% in assay [1]; -0.46% in assay [2]; -3.55% in assay [3]; 4.5% in assay [4]; -6.97% in assay [5].
